Test results from patent US20130231277A1 (published 2013).

Biological target: T1, ectodomain of murine βKlotho (F53 to L995 of SEQ ID NO: 218) with a C-terminal FLAG tag (UniProt Q99N32 53-995)
T1 chain: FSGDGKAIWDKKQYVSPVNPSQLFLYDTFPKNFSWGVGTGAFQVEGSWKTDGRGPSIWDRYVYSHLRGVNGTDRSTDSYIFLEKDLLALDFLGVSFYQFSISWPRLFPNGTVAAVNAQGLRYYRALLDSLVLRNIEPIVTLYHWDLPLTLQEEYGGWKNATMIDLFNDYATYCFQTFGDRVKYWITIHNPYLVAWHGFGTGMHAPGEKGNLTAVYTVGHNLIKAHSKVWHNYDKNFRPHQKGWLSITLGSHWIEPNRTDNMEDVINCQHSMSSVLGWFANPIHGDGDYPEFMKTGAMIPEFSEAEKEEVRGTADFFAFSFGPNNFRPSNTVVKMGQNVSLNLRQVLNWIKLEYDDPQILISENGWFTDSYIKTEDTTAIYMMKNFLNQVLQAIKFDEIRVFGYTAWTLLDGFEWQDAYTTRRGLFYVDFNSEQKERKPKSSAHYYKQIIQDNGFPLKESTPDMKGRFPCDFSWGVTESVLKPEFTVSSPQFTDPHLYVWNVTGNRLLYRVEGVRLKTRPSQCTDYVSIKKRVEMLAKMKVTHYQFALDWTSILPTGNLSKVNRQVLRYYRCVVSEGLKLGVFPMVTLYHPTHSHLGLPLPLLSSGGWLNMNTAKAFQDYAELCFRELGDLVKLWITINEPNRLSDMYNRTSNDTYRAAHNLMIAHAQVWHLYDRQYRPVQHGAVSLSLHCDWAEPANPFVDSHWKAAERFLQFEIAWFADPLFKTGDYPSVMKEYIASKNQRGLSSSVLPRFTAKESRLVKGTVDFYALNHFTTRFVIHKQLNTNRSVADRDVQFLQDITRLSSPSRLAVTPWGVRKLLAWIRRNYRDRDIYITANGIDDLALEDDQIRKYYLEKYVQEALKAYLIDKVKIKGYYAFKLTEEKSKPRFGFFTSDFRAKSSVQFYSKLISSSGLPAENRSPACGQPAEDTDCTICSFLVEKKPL
Test: SPR

Kd: 84 nM
B1: ligand-binding domain of human FGFR4 ([…] of SEQ ID NO: 230) (receptor)
chain: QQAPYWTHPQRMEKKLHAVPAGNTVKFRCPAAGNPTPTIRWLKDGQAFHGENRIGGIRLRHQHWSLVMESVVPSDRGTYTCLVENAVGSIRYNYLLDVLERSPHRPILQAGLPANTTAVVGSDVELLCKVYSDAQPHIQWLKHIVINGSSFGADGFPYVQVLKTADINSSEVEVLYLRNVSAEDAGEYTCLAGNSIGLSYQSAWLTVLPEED
